Assay results: ChEMBL document CHEMBL4888484, “Replenishing the malaria drug discovery pipeline: Screening and hit evaluation of the MMV Hit Generation Library 1 (HGL1) against asexual blood stage Plasmodium falciparum ,using a nano luciferase reporter read-out” (2022)
The whole screen tested about 150,000 compounds, of which about 540 (0.36%) showed an effect of 50% or more. Some of the results follow.

system: Plasmodium falciparum; assay: Primary screen in NF54 nanoGlo assay, in single point, at 2uM, 72h; a lower Z score goes with more inhibition; assay type: functional, Erythrocyte; settings: timepoint 72 hour

Row | Structure (SMILES) | % Inhibition [%] | Z score
1 | C[C@H](NC(=O)c1ncoc1C(F)(F)F)c1ccc(F)cc1OC(F)F | -16 | 2.28
2 | CCc1cc(Br)cc2c1N(C(=O)c1cn(C)nn1)CCC2 | 4 | -0.52
3 | CCOC1CC(O)(CNC(=O)c2cc(C)ccc2Br)C1 (centres undefined) | 4 | -0.48
4 | C[C@@H](CC#N)N1CCC(C2CCOCC2)CC1 | -7 | 1.01
5 | O=C(O)C1(n2cccn2)CCN(c2nc(-c3ccccc3)cs2)CC1 | -4 | 0.76
6 | O=C(CCN1CCCC1=O)Nc1ccc2cc(Cl)cnc2n1 | -9 | 0.96
7 | CN1CCC(N(CCc2ccccc2)C(=O)c2cnsn2)CC1 | 10 | -1.3
8 | Cc1cccc(O[C@@H](C)c2cccnc2)n1 | -4 | 0.55
9 | c1ccc([C@@]2(CN3CCC(OCc4cccnc4)CC3)CCOC2)cc1 | -10 | 1.79
10 | CC(C)c1nc([C@@H]2CC(=O)Nc3n[nH]c(-c4ccccc4)c32)co1 | -1 | 0.24
11 | Cc1ccc(C2CCCCCN2S(=O)(=O)C(C)C(=O)N(C)C)o1 (centres undefined) | 3 | -0.44
12 | CCO[C@@H](C(=O)NC(C)(C)c1cc(C(F)F)on1)c1ccccc1 | -5 | 0.71
13 | CCOc1cc(CNC2CCCC2)cc(Cl)c1OCc1ccccc1Cl | 5 | -0.63
14 | C[C@@H]1Oc2ccc(S(=O)(=O)N3CCN(C(=O)Cc4c(F)cccc4Cl)CC3)cc2NC1=O | -23 | 2.27
15 | O=C(NCCN1CCOCC1)C1CC2CCC1C2 (centres undefined) | -13 | 1.99
16 | NC(=O)[C@@H]1C[C@@H]2CCCN2[C@]12C(=O)Nc1ccc(Br)cc12 | -2 | 0.24
17 | Cn1nc(CCNS(=O)(=O)CC2CCCCC2)c2ccccc21 | -2 | 0.28
18 | Cn1cnc2cc(-c3cnc(C4CC4)o3)ncc21 | -8 | 1.49
19 | COc1ccc(C(=O)N2CCc3[nH]cnc3C23CCCCC3)cc1 | -17 | 1.9

Row | Structure (SMILES) | % Inhibition [%] | Z score
20 | O=C1CCC(=O)N1Cc1nc(-c2ccc(C3CCCCC3)cc2)cs1 | -1 | 0.18
21 | Cc1nn(C)c2c1C[C@H](Nc1ncc(C#N)cc1Cl)CN2 | -7 | 0.82
22 | CCOc1ccc(-c2cncc(C(=O)N(C)C)c2)nc1 | -8 | 1.48
23 | O=C1NCC2(CCN(c3ccncc3F)CC2)O1 | -3 | 0.33
24 | COc1ccccc1OCC(=O)N1CC(n2ccnn2)C1 | -5 | 0.62
25 | O=C(c1n[nH]c(=O)c2ccccc12)N1CCN(c2cc(C(F)(F)F)ncn2)CC1 | -17 | 2.2
26 | CC1CCCC(C)N(C(=O)C2COCCO2)C1 (centres undefined) | -10 | 1.34
27 | CCc1nnc(CNc2cc(NC(=O)OC(C)(C)C)ccc2C)n1C | -12 | 1.93
28 | CC(C)(C)OC(=O)N1CCC[C@H](CC#N)C1 | 5 | -0.73
29 | O=C(Nc1cccc2ccccc12)c1cccs1 | 7 | -1.18
30 | Cc1ccc(NS(C)(=O)=O)c(O)c1 | 4 | -0.45
31 | O=C(Nc1ccc(Br)cn1)[C@@H]1Cc2ccccc2O1 | -1 | 0.24
32 | CC(C)(C(=O)O)c1cnc(N2CCC2)nc1N1CCOCC1 | 3 | -0.54
33 | CCCOc1cccc(CON=C(N)CCO)c1 | -10 | 1.38
34 | CC12CC(=O)NC1N=C(c1ccccc1O)C2 (centres undefined) | 5 | -0.53
35 | CCCc1nnc(N2C[C@H](C(C)C)[C@@H](N)C2)s1 | 1 | -0.16
36 | CCc1nn(C)c2c(=O)n(Cc3csc(C)n3)cnc12 | -7 | 1.47
37 | Cc1csc(C(=O)NCC[C@H](O)C(C)(C)C)c1 | -11 | 1.67
38 | Cc1cccc(OC[C@H](C)NC(=O)NC2CCC(O)CC2)c1 (some centres undefined) | -6 | 1.02

Row | Structure (SMILES) | % Inhibition [%] | Z score
39 | O=C(C[C@]1(c2ccccc2F)CC(=O)N(C2CCCC2)C1=O)N1CCN(c2ccccc2)CC1 | 3 | -0.33
40 | Cc1ncc2c(c1-c1noc(CCc3cccs3)n1)CCNC2 | -10 | 0.95
41 | COc1ccc(CN2C(=O)c3c(NC(C)=O)c4ccccc4n3C[C@@]2(C)C(=O)NC2CCCC2)cc1 | -3 | 0.3
42 | COc1ccc(CN2CCCCCC2CC(O)c2cccs2)nn1 (centres undefined) | -11 | 1.35
43 | Cn1cnnc1[C@H](CO)Nc1nc(C2CCCCC2)ns1 | 3 | -0.5
44 | CN(CC1CCCC1O)C(=O)[C@H]1CCC(=O)N1 (some centres undefined) | -10 | 1.39
45 | CC(C)CCN1CCN(CCC(C)C)[C@H](C(=O)N(C)C)C1 | 0 | -0.03
46 | Cc1nn(C)c2nc(NCC3(N4CCOCC4)CCCCCC3)sc12 | -2 | 0.22
47 | CCCC[C@@H]1C[C@@H]1C(=O)NCC1(O)CCN(C)CC1 | 4 | -0.85
48 | Cc1cc(NC(=O)CN2CCC(c3nnc4n3CCC4)CC2)no1 | -13 | 2.19
49 | COCC(=O)NC[C@H]1CCN(Cc2ccc3cccc(Cl)c3n2)C1 | -3 | 0.66
50 | CCN1C[C@@H](c2ccccc2)CC2(CCN(S(=O)(=O)C3CC3)CC2)C1 | 8 | -1.02
51 | CS(=O)(=O)c1ccc(CN2CCC([C@H](O)c3ccccn3)CC2)cc1 | -10 | 0.99
52 | O=C(c1ccc(C(=O)N2CCCCC2)cc1)N1CCCCC1 | -13 | 2.38
53 | CC(C)c1ccc(N2C[C@H](O)[C@@H](N3CCCC3)C2)nn1 | -6 | 0.86
54 | NC(=O)[C@@H]1C[C@H](Oc2ccccc2)CN1S(=O)(=O)c1cccc(F)c1 | -12 | 1.62
55 | O=C(CCC1CCCCO1)NC1CC[S+]([O-])C1 (centres undefined) | -9 | 1.3
56 | C=CCn1nnnc1NC/C=C/c1ccc(Cl)cc1 | -2 | 0.22
57 | Cc1nccn1C[C@H]1CCCN(c2nc3ccccc3o2)C1 | 9 | -1.29
